From the supplement of paper PMC12645437, “Orthogonal IMiD-Degron Pairs Induce Selective Protein Degradation in Cells” (ACS Chemical Biology, 2025)
Some of the results follow.

target: no compound (DMSO); assay: log2 fold change of degron read counts, EGFP-low vs EGFP+ sorted cells; higher = lower degron-EGFP level without compound (poor expression or instability); settings: compound: DMSO control; 18 h
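Further: jurkat cells carrying a lentiviral library of mutant zinc finger degrons fused to EGFP plus mCherry, mCherry+ cells FACS sorted, degron abundance counted by next-generation sequencing.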

| Sequence | log2 fold change of degron read counts |
| --- | --- |
| LVCEICGFQCTQKGNLLRHIKL | -0.194 |
| FECNQCGRCFTQKGNLLRHIKL | -1.53 |
| FKCNICGACFTQKGNLLRHIKL | -0.462 |
| FMCEVCGAVFTQKGNLLRHIKL | -1.06 |
| FGCNICGAGFTQKGNLLRHIKL | 0.0161 |
| LICPICGFSCTQKGNLLRHIKL | 0.545 |
| FYCNQCGREFTQKGNLLRHIKL | -0.248 |
| FKCSVCGHVFTQKGNLLRHIKL | -0.343 |
| FCCEICGRQFTQKGNLLRHIKL | -1.5 |
| FRCNQCGHRFTQKGNLLRHIKL | -0.158 |
| FACPICGADFTQKGNLLRHIKL | -0.433 |
| FWCPQCGAMFTQKGNLLRHIKL | 0.83 |
| FMCPICGRYFTQKGNLLRHIKL | 0.804 |
| FECNICGAQFTQKGNLLRHIKL | -0.448 |
| FDCNQCGHDFTQKGNLLRHIKL | -0.209 |
| FTCNVCGAHFTQKGNLLRHIKL | -0.599 |
| LYCEICGFRCTQKGNLLRHIKL | 0.542 |
| FACEVCGASFTQKGNLLRHIKL | -1.42 |
| FRCEICGRVFTQKGNLLRHIKL | -1.09 |
| FHCNQCGHNFTQKGNLLRHIKL | 0.00372 |
| FSCSVCGHSFTQKGNLLRHIKL | -0.499 |
| FGCPICGRPFTQKGNLLRHIKL | 0.727 |
| FKCPICGHLFTQKGNLLRHIKL | -0.825 |
| LYCNQCGFKCTQKGNLLRHIKL | 1 |
| FHCPICGRAFTQKGNLLRHIKL | -1.29 |

| Sequence | log2 fold change of degron read counts |
| --- | --- |
| FWCEVCGAEFTQKGNLLRHIKL | -1.61 |
| FECEICGRWFTQKGNLLRHIKL | -0.683 |
| FACPICGRKFTQKGNLLRHIKL | -1.15 |
| FICPICGANFTQKGNLLRHIKL | -0.699 |
| FMCDVCGAGFTQKGNLLRHIKL | -1.56 |
| FTCEICGHHFTQKGNLLRHIKL | -1.82 |
| LWCEICGFFCTQKGNLLRHIKL | 3.03 |
| FECNQCGAHFTQKGNLLRHIKL | -0.862 |
| FTCNQCGASFTQKGNLLRHIKL | -1.73 |
| FGCNQCGAYFTQKGNLLRHIKL | 1.11 |
| FHCNQCGHFFTQKGNLLRHIKL | 0.931 |
| FVCEVCGANFTQKGNLLRHIKL | -2.41 |
| FVCEICGRVFTQKGNLLRHIKL | -2.45 |
| LMCPICGFTCTQKGNLLRHIKL | 0.34 |
| FLCSVCGHWFTQKGNLLRHIKL | 1.1 |
| FSCPQCGAGFTQKGNLLRHIKL | -1.85 |
| FACNQCGAHFTQKGNLLRHIKL | -0.662 |
| FECNQCGHDFTQKGNLLRHIKL | -1.09 |
| FKCNQCGRQFTQKGNLLRHIKL | -1.32 |
| FCCNQCGHNFTQKGNLLRHIKL | 0.0899 |
| FQCEQCGAKFTQKGNLLRHIKL | -2.83 |
| FNCPICGANFTQKGNLLRHIKL | -0.957 |
| FCCPICGRIFTQKGNLLRHIKL | 0.567 |
| FRCNQCGHQFTQKGNLLRHIKL | -0.247 |
| FACPQCGAKFTQKGNLLRHIKL | -0.584 |
